# From paper PMC12136788
# The other results are listed elsewhere or left out.
# T1: UNK ZnF1-6 (called full-length) (human, UniProt Q9C0B0 30-357)
# T1 sequence: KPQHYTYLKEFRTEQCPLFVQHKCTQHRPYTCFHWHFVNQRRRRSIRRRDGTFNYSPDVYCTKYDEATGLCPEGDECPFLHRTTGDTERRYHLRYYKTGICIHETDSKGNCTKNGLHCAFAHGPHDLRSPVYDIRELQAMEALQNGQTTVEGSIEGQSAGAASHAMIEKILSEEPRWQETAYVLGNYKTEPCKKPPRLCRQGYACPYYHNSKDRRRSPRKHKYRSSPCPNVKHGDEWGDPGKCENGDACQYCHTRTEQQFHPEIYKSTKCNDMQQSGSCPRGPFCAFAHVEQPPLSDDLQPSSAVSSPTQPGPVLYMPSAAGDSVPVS
# B1: chr13:108229279:108229380:+|CDS|ENSG00000139826|unk|total|mutant (ssRNA)
# RNA: GGGAGUUCUACAGUCCGACGAUCGCUAACCGCCUUGGCUUCAUGGUCUUGGGCUCUCUGCCGUAUUUCUCUUUUACCUUUAACCGUGACUUUUCAUCUGUAUGGAGGCAUUAUCUUACUUUUGUUAAUAUUCAUAUCAACCGCCAACAGAGGAUUGAGCAUCA
# B2: chr7:95294748:95294849:+|3pUTR|ENSG00000158528|msi1|total|mutant (ssRNA)
# RNA: GGGAGUUCUACAGUCCGACGAUCGAGAAAGCCGACAGAAUCAGCUUCUCCUGGAAAGUGAAAGCAUCAAGUUCUAUUUAUGGCCGACAGAGGGUCCUUAUUUGCUUGUCCGUGGUGUCUAUGUGGGCCUAUUGAGGGAAUGGUCAACAGAGGAUUGAGCAUCA
# B3: chr1:156672197:156672316:-|CDS|ENSG00000132688|unk|total|mutant (ssRNA)
# RNA: GGGAGUUCUACAGUCCGACGAUCGACAUUGCAAUCCCUGCAAAAGGAGAAUCAAGAACUAAUGAAAUCUCUUGAAGGUAAUCCCGAGACAUUUUUAUUUCCAGGAACGGAAAAUCAAGAAUCCGUAAGUUCUCUGCAAGAGAACAACAGAGGAUUGAGCAUCA
# B4: chr16:74621626:74621727:-|3pUTR|ENSG00000168411|msi1|FALSE|unique (ssRNA)
# RNA: GGGAGUUCUACAGUCCGACGAUCCAUCUCAAAAAAAACAAACAAACAAAAAAAAACCCUGAUGCCAUUCCCAGUCCCCGUUGUAGGACAUCACAUUUAUAAAUCCAGGCUUUAGUCUUCUGGGCUCCACCAGUCUCUGCCCCACAACAGAGGAUUGAGCAUCA
# B5: ENSG00000136451:be:win_3401|3pUTR|ENSG00000136451|bound_else_gene|NA|bound_elsewhere_windowed (ssRNA)
# RNA: GGGAGUUCUACAGUCCGACGAUCAUGUAAACAUGCCCUAUGUUUGUGCCUUUUAAUUAGUUUGUCUCAAUAAACAAAAUGUAGAGAAAAAUAUGUAGCUAUGACUUUGUUACAACUGUUCUUAUCCACAGUACAAAAAUGGUUCAACAGAGGAUUGAGCAUCA
# B6: chr4:41699229:41699330:+|3pUTR|ENSG00000064042|msi1|total|mutant (ssRNA)
# RNA: GGGAGUUCUACAGUCCGACGAUCGAUUACAUGAAUAUUGCACAUUCCCUUCUGGUUUCACAAACCCAUUUAUACAUAUUUCUCCGUGAGGCUCAUUGUACAUGUAUUGAAGCCCGAAUCGAGUCAAGAAAAAUAAAGCCCCAUCAACAGAGGAUUGAGCAUCA
# B7: chr16:14672609:14672749:-|CDS|ENSG00000069764|control|control|control (ssRNA)
# RNA: GGGAGUUCUACAGUCCGACGAUCGGCAGAGAACAAAUGCCAAGAACUGUUGUGCAAGUGUGACCAGGAGAUUGCUAACUGCUUAGCCCAAACUGAGUACAACUUAAAGUACCUCUUCUACCCCCAGUUCCUAUGUGAGCCGGACAACAGAGGAUUGAGCAUCA
# B8: chr2:152649661:152649762:+|3pUTR|ENSG00000157827|msi1|total|mutant (ssRNA)
# RNA: GGGAGUUCUACAGUCCGACGAUCCUACAAACCGACAACGUUGGCAUGUUCUUUUCUGUUUGUCUAUUAAUGGGCCUGCUUCUCCGCAAUAUCCGAAUGUUUUAUAAAAGCAAUUCAUGUUACUUUUCUGGUCUUUUCAUGGCACAACAGAGGAUUGAGCAUCA
# B9: ENSG00000198589:be:win_9601|3pUTR|ENSG00000198589|bound_else_gene|NA|bound_elsewhere_windowed (ssRNA)
# RNA: GGGAGUUCUACAGUCCGACGAUCUAAAUUCUUUGUAUGUUGUGAACUUUGAUCUCUAUUUCUCUUGCAACAGACUUCAAGUGGUCCCUCUUUUUUUCCUACACACUCAGCUCUUCUCUAAAAGCAAGGAUUUGGAAUGAACAACAACAGAGGAUUGAGCAUCA
# B10: chr12:54238554:54238587:-|3pUTR|ENSG00000094916|msi1_unk|total|mutant (ssRNA)
# RNA: GGGAGUUCUACAGUCCGACGAUCGGGAGCACCCAUUUUAAACCUGGAGAGAACCAUGAUGUUUUCUUCUUCAAAUAACAAUCCCGUUUUUUUUCCCCCAGUACUAAAAUUGUAUUGUCUUUCAGACAAUAUAAUUUUUAUUUACAACAGAGGAUUGAGCAUCA
# B11: chr6:117694021:117694122:+|CDS|ENSG00000153989|msi1|FALSE|unique (ssRNA)
# RNA: GGGAGUUCUACAGUCCGACGAUCGCUGUCUCCGGAAGAUGGAAAAGCAGAUAUUGUAAGAGCUGCUCAGGACUUUUGCCAGUUAGUAGCCCAGAAGCAAAAGAGACCCACAGAUUUGGAUGUAGAUACGUUAGCCAGUUUACUCAACAGAGGAUUGAGCAUCA
# B12: chr6:41028375:41028595:-|CDS|ENSG00000124602|control|control|control (ssRNA)
# RNA: GGGAGUUCUACAGUCCGACGAUCUGAGGAGCAGAACGGCAGCCUGCAGGAGCUGCACUACCUCAUGACCGUCAUGGAGCGGCUAGACUGCGCCUCCGCCAUCCAGAACUACCUGAGUGGGACACACGGCGGCAGCCCAGGCCCCAACAGAGGAUUGAGCAUCA
# B13: chr12:114680981:114681101:-|CDS|ENSG00000135111|unk|FALSE|unique (ssRNA)
# RNA: GGGAGUUCUACAGUCCGACGAUCUAAAGUGAGAUGUUCUGGGCUGGAUAAAAAAGCCAAAUACAUUUUAUUGAUGGACAUUAUAGCUGCUGAUGACUGUCGUUAUAAAUUUCACAAUUCUCGGUGGAUGGUGGCUGGUAAGGCCAACAGAGGAUUGAGCAUCA
# B14: chr10:116672031:116672132:-|3pUTR|ENSG00000165868|msi1|FALSE|unique (ssRNA)
# RNA: GGGAGUUCUACAGUCCGACGAUCCCUUUCCUGCCUUGCAUUAAUGCUAUCUCCCUGUGUACUGUUUCUCUUAAAUGAGCAGAUAGAAAUCUGCAGUGUUGGCAGAUAGGUGAUGGAGAGGAUGAUAAUUUUAUCUUCUGGCCACAACAGAGGAUUGAGCAUCA
# B15: chr10:122937732:122937852:-|CDS|ENSG00000119965|unk|total|mutant (ssRNA)
# RNA: GGGAGUUCUACAGUCCGACGAUCGUAAGUGACAACUCAAAUAUACCCAACUCCGAGUUGCUGCCUUUUCUCCAGAAUUUAUGCCGUCAAGUUAAUCAUCUCCAUGUGGGAAAUAAGACCGAGUGUCAGGAAAACAUCACCAAGCAACAGAGGAUUGAGCAUCA
# B16: chr2:200490383:200490484:-|CDS|ENSG00000155729|msi1|total|mutant (ssRNA)
# RNA: GGGAGUUCUACAGUCCGACGAUCUCUCCAGCCAGUGCCAUCCAGACGUCGGCUGGGGCGACAGCAAACCGGUUUCAAAGUGGCCGCCGCAGAAAGGCAGCUCAGCGCUCUGCACCUUCCAGAGCCACGGCCCUGGUGGGCACGCAACAGAGGAUUGAGCAUCA
# B17: chr7:108149816:108149915:-|CDS_3pUTR|ENSG00000091129|msi1_unk|total|mutant (ssRNA)
# RNA: GGGAGUUCUACAGUCCGACGAUCGUCAACGCCAUGAAUUCCUUUGUUUAAUUUUUAAGCUCUUUGCCAAUAUUCCAUUUCUCCCGAAUGUUUAUCCUAAGCACUUGUUUGUCAGCCCUCUCAUACUAUGAACAUAUGGGCCGACAACAGAGGAUUGAGCAUCA
# B18: chrX:13662881:13662996:+|CDS|ENSG00000176896|unk|total|mutant (ssRNA)
# RNA: GGGAGUUCUACAGUCCGACGAUCUCGAAUUCUCUGUCUUCCCAAGACGUUGCAAAACUCAGUGAAAUGAUUGUGCCUGAAAACCGAGCCAUUCAAUUGAAACCUAAGGAAGAGCAUUUUGGGGAUGGUGACCCUGAAUCCACUCAACAGAGGAUUGAGCAUCA
# B19: chrX:24560996:24561098:-|3pUTR|ENSG00000102230|unk|total|mutant (ssRNA)
# RNA: GGGAGUUCUACAGUCCGACGAUCACUCAAGACUUUUUACAGAGAACUGUGGGCUCAGUUAUGAUCUCAGCAUCUGAAUGGUCCCGGCCGUAUCACCAUUAUCUCUGGCCCCCGGUUUGCCAAGCCGGAUGAAGACUCUAAGUGCAACAGAGGAUUGAGCAUCA
# B20: ENSG00000196628:stop:overlap|stop_codon|ENSG00000196628|stop_codon|NA|stop_codon (ssRNA)
# RNA: GGGAGUUCUACAGUCCGACGAUCCAACCUCCACCUCCCAGGUUCAAGCUAUCCUCCUGCCUCAGCCUCCUGAGUACCCGGGAUAGGCGUUUGUGUGAUUUUGCUAAAAUGCAUCACCAACAGCGAAUGGCUGCCUUAGGGACGCAACAGAGGAUUGAGCAUCA
# B21: chr6:36232219:36232320:+|3pUTR|ENSG00000096070|unk|total|mutant (ssRNA)
# RNA: GGGAGUUCUACAGUCCGACGAUCGCCCGGGAAGGACAUGGUGUAUAUAAUUGUAAAAUACUGUUCUAAAUUAUUCAGGCCUACCGUUUCCAUUACUGGAGUCCUCCAUUGUGUGGCCACACAGUGUCGUUGAUUUAAAGGAGCCAACAGAGGAUUGAGCAUCA
# B22: ENSG00000070961:be:win_2601|CDS|ENSG00000070961|bound_else_gene|NA|bound_elsewhere_windowed (ssRNA)
# RNA: GGGAGUUCUACAGUCCGACGAUCGAUUGUUGCUUUUACGGGCGCCUGCAUUACUCAAGACUCACCGCUUAAGGCUGUGCAGAUGCUGUGGGUAAACCUCAUAAUGGAUACACUCGCUUCCCUGGCUCUGGCAACGGAACCACCCAACAGAGGAUUGAGCAUCA
# Target: T1, UNK ZnF1-6 (called full-length)
# Assay: nsRBNS (natural sequence RNA bind-n-seq); RBNS binding buffer (assumed for nsRBNS): 25 mM Tris pH 7.5, 150 mM KCl, 3 mM MgCl2, 0.01% Triton X-100, 500 ug/ml BSA, 20 U/ml SUPERase-In, 4 C; UNK is unkempt and MSI1 is Musashi-1; names of the RNAs are library labels; protein concentration not given here; high values mean tight binding
row,Binder,binding signal
1,B1,0.806 enrichment R
2,B2,0.626 enrichment R
3,B3,0.177 enrichment R
4,B4,1.16 enrichment R
5,B5,1.79 enrichment R
6,B6,0.474 enrichment R
7,B7,0.625 enrichment R
8,B8,0.502 enrichment R
9,B9,0.433 enrichment R
10,B10,0.639 enrichment R
11,B11,1.36 enrichment R
12,B12,0.806 enrichment R
13,B13,0.604 enrichment R
14,B14,0.373 enrichment R
15,B15,0.479 enrichment R
16,B16,0.605 enrichment R
17,B17,1.19 enrichment R
18,B18,0.441 enrichment R
19,B19,0.574 enrichment R
20,B20,0.325 enrichment R
21,B21,0.743 enrichment R
22,B22,0.556 enrichment R
